# Experimental data published in the supplement of paper PMC3334620.
# The full ranking holds about 33,000 sequences; the median of “E-score (-0.5 to 0.5)” is about -0.054, and the highest 2% start at about 0.35. This is one part of the list.
# Molecular target: T1, Stb5 (UniProt P38699)
# T1 sequence: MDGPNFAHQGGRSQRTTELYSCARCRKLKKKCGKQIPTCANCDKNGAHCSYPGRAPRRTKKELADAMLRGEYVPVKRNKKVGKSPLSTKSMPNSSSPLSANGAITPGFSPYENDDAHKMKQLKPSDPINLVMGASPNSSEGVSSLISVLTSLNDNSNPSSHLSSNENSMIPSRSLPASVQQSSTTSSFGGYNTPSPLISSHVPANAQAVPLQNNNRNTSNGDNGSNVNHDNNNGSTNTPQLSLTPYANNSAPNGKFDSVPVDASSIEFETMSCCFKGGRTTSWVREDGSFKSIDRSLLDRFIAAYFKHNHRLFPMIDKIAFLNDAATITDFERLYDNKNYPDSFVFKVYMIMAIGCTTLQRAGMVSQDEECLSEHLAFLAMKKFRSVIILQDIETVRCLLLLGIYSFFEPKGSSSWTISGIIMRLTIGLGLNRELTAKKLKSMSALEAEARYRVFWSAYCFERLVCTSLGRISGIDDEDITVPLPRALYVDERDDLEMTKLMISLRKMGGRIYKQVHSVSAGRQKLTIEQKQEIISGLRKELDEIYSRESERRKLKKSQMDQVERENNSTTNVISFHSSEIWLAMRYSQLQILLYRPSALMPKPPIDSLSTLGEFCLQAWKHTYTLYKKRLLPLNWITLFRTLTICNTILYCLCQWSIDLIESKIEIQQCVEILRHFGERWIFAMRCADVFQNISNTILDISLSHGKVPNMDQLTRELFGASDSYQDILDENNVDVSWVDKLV
# Test: PBM E-score (8-mer binding enrichment) (E-score (-0.5 to 0.5)); higher = stronger / more preferred TF binding; most listed sequences are background and not binding sites
# Settings: protein concentration: 200 nM; construct: GST-full length
# Method in brief: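 Yeast transcription factors carrying a GST tag, as full-length proteins or DNA-binding domains, were produced by PURExpress in vitro transcription/translation. About 100-200 nM protein was applied to universal all-10-mer Agilent arrays, double-stranded by primer extension on fresh or once-stripped slides. Bound protein was detected with fluorescent anti-GST, and scans were normalised with masliner. The Universal PBM Analysis Suite gave each ungapped eight-base word, pooled with its reverse complement, an E-score, a modified Wilcoxon-Mann-Whitney statistic.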
row,Sequence,PBM E-score
1,AATGCATT,-0.0561
2,AAGGAAAC,-0.0801
3,ACCCAGTG,-0.137
4,GACGGGAC,0.263
5,GAATCCAA,-0.0196
6,ACACACTA,-0.195
7,AAGCGAAC,-0.232
8,ATACGACC,0.0979
9,CGCGCTCA,-0.0421
10,CTATTTCA,0.069
11,CTGGGCTA,-0.0628
12,AAATCATA,-0.138
13,CGCCAGGA,-0.17
14,ACGAGCAG,-0.142
15,AGCGACGG,0.245
16,ACATTGGC,-0.26
17,ACCGTCGT,0.233
18,CATCTTCC,0.0811
19,CACCGGAC,0.413
20,GGGCGAAC,-0.158
21,CGGGCGAA,0.143
22,GTCGGTTA,0.182
23,ATGATGTC,0.00134
24,ACTGAAAT,-0.247
25,CCCTCAGG,-0.0337

row,Sequence,PBM E-score
1,AGTTACTG,0.0537
2,AGAAATGG,-0.143
3,CCTGGCTA,-0.283
4,CAGGAGTC,-0.149
5,CACAAGGC,-0.0126
6,TGAGCTCA,-0.125
7,AATGTCCG,0.438
8,AGACTGGA,-0.0927
9,CATCAACA,0.0855
10,CACATGTG,-0.0446
11,CACTAACG,0.0364
12,CCTTCCTC,-0.17
13,GACCTGCC,-0.0858
14,CGGTAAAA,0.32
15,GAATATTC,0.0673
16,GCGTGACC,-0.131
17,AAGCCCAA,-0.0712
18,CACAGAGA,-0.24
19,CAACCGGA,0.215
20,CAATCTAG,0.0021
21,AACGTGGC,-0.29
22,ACTCGGGA,0.116
23,CGATCCGC,0.266
24,AGTATTAC,0.0335
25,ATGTAGAA,-0.0382

row,Sequence,PBM E-score
1,CAATCAAG,-0.0529
2,CACAGTTA,-0.17
3,AAATCGCC,0.169
4,CGAAAAGA,0.0925
5,CGAATCGA,-0.0368
6,ACTAGGCG,0.112
7,TGCAAACA,-0.235
8,GTTGTAGA,-0.221
9,CGTTGCTC,0.00415
10,ATCCCGCG,0.309
11,CGTGTCTC,-0.06
12,AAGCAGAT,-0.139
13,ACGATACC,0.0185
14,CGTACACA,-0.209
15,TGCGATAA,-0.15
16,ATGTCACC,0.321
17,AAAAATTA,0.0434
18,CTGTCACA,-0.128
19,GAAAGCCA,-0.226
20,ATGCGTGC,-0.194
21,GAATGTCC,0.211
22,ATGAAGAC,-0.048
23,TAGCTGGA,-0.222
24,AACTTTAA,0.00296
25,AAGGATCA,-0.18

row,Sequence,PBM E-score
1,GAGCGTGA,0.0626
2,CTCGTGGA,-0.199
3,ATAAGGCA,-0.131
4,CGTACGCC,0.138
5,GGGAGCTA,-0.0945
6,ATGAGTTG,-0.0957
7,TATGTAGA,-0.102
8,AGATGAGC,-0.224
9,CACGAGGA,-0.111
10,CCGAGCTA,0.0922
11,CATGCAAG,-0.0987
12,ATGGTGGC,-0.185
13,ATATTTAC,0.0874
14,GAGTCATA,-0.0136
15,GGAACGGA,0.321
16,AAAAGTGA,-0.0979
17,AGTAACAA,-0.0286
18,CGCCTACA,-0.0416
19,CGCCTAGC,0.107
20,GCACGCAA,0.0357
21,GGAATATA,0.129
22,CTACAGAG,-0.114
23,ATCGTGAG,0.0538
24,CGCGTCAA,-0.0197
25,CGAATCTC,0.0844

row,Sequence,PBM E-score
1,AGCCAAAC,-0.0903
2,ATACTAAA,-0.159
3,CAATCGGG,0.188
4,CTGCGTCC,-0.185
5,GGCTTTAA,0.307
6,GAGATCTC,-0.0498
7,ATCCTGTA,-0.152
8,GGCATTAC,0.249
9,TAGAGACA,-0.283
10,AGCAAATG,-0.151
11,CAGTCCGC,0.252
12,CACCGTGG,0.197
13,GGCTGCGA,-0.15
14,AGCTAAAG,-0.106
15,CATCAAAG,-0.153
16,ACTACGTG,-0.0845
17,AAACCTTA,-0.214
18,AAACTATA,0.0686
19,ACGACGCC,0.085
20,ATGCGAGA,-0.175
21,CCGCTGCC,0.168
22,CAAATACC,0.263
23,CGGCGGGC,0.361
24,GGTAGTTA,0.118
25,ACGCTGGG,0.00412

row,Sequence,PBM E-score
1,GTGATTCA,-0.0843
2,CGTAATTA,0.0333
3,CAGATCAC,-0.136
4,CGTACGAC,-0.107
5,GGAGTCGA,-0.0605
6,CGATGGAG,0.287
7,ACTGGGAT,-0.274
8,CGGCAGGC,0.051
9,AGGCAAGG,-0.233
10,ACATATAC,-0.0536
11,ATGGACGG,0.299
12,AATTGGTA,-0.0105
13,GCTGTCTA,-0.0882
14,CGATTCAG,0.0468
15,CCATTAGC,-0.0464
16,CAAGGTCG,-0.0186
17,AAGAGTCT,-0.162
18,CACTGAAG,0.0242
19,CGGGCCTC,0.108
20,CGAGTTAA,-0.173
21,AAAACACC,0.353
22,CTTCAGCC,-0.239
23,ACGTAGCG,0.0411
24,ACGACAAA,-0.176
25,AGCAGGCA,-0.141

row,Sequence,PBM E-score
1,TACCACAA,-0.186
2,TCCTAACA,-0.218
3,AGTCGATC,0.0234
4,ACGCCAGC,-0.181
5,TAGCCTCA,-0.228
6,GGCGACTA,0.0909
7,CTCAATCC,-0.0653
8,CTCCCCTA,-0.0447
9,ATTTTACA,-0.0811
10,CGCTTGCA,0.045
11,CGCCGCAG,0.299
12,CAACGGAC,0.342
13,ATGGGCCC,0.116
14,CTTCGTGC,0.0241
15,AGGGCGTC,0.118
16,TCCCGACA,0.291
17,AAAGAATA,-0.0838
18,GTCCTCTA,-0.159
19,AGACTTCA,-0.343
20,AATAAGAA,0.00234
21,GACTCCCA,-0.206
22,GCGTTATA,0.111
